Results taken from PubChem BioAssay AID2451 (National Center for Advancing Translational Sciences (NCATS), 2010).
Hit rate of the full screen: of about 290,000 compounds, about 2,100 (0.72%) were called active. The inconclusive results got no clear call from the source; some entries with a clear call stand among them for comparison. The call rests on the fitted dose curve; in most records, active means well fitted inhibition curve with a large enough effect; inconclusive means small, poorly fitted or top-dose-only effect, or effect the other way; inactive means flat fitted curve, though single readings scatter. Potencies of inconclusive entries are doubtful fits and often do not repeat.

target: Fructose-bisphosphate aldolase (Giardia intestinalis (strain ATCC 50803 / WB clone C6)) (UniProt A8B2U2); assay: qHTS Assay for Inhibitors of Fructose-1,6-bisphosphate Aldolase from Giardia Lamblia; details: purified Giardia FBPA; activity, negative = inhibition: at 59.6 µM (top of the series) unless noted; further: nearly all actives have a fitted effect of over 55% in size
UniProt A8B2U2, sequence (A8B2U2 whole entry, looked up): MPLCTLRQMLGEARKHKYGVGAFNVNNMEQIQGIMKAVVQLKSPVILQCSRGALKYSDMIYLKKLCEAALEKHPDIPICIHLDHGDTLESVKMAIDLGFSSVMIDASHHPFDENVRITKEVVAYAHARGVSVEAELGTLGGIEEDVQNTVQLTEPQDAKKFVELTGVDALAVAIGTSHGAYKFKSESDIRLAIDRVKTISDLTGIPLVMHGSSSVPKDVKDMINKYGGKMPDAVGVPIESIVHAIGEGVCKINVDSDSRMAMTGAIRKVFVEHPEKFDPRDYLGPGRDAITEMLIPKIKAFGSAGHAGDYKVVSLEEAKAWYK
How it was run: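 Giardia FBPA (40 nM reagent) was preincubated 10 min at RT with compound (up to 57.5 uM final), then substrate plus GAPDH/TPI/NAD/arsenate coupling system with diaphorase/resazurin was added; resorufin fluorescence (525/598 nm) was read after 20 min.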
On the % scale 0 is the no-effect control and ±100 the full control effect; potency means the concentration at half of the fitted maximal effect; tags describe the fitted curve by direction and shape.

SMILES | Potency | activity, negative = inhibition
CCCN1CCCc2cc(CN)ccc21 | inconclusive: 0.889 µM [inhibitor, full curve] | 
CN1CCN2c3ccccc3Cc3ccccc3C2C1 (stereo unspecified) | inconclusive: 9.98 µM [inhibitor, partial curve] | 
Cc1ccc(S(=O)(=O)N2CCOCC2)cc1NC(=O)CNCC1CCCCC1 | inconclusive: 17.7 µM [inhibitor, partial curve] | 
COc1ccc(C2C(C#N)=C(N)SC(N)=C2C#N)cc1OC | inconclusive: 6.29 µM [inhibitor, partial curve] | 
Cc1cc([N+](=O)[O-])nn1Cc1ccc(C(=O)N/N=C/c2ccc(O)cc2O)cc1 |  | inactive: -18.9%
Cc1ccc(C(=O)N/N=C\c2cc(Br)c(Br)o2)cn1 | inconclusive: 17.7 µM [inhibitor, partial curve] | 
C=CCO/N=C/C1C(=O)CC(C)(C)CC1=O | inconclusive: 12.6 µM [inhibitor, partial curve] | 
CSc1ccc(C2C(C#N)=C(N)Oc3c2ccc(=O)c2c(C)oc(C)c32)cc1 (stereo unspecified) | inconclusive: 15.8 µM [inhibitor, partial curve] | 
CCCn1ncc2c(Nc3ccc(C)c(C)c3)ncnc21 |  | inactive: 2.26%
O=S(=O)(c1cccs1)N1CCN(CC(O)COc2cccc(Br)c2)CC1 (stereo unspecified) | inconclusive: 19.9 µM [inhibitor, partial curve] | 
O=C(NCC1CC1)c1ccc(Nc2nc3ccc(Br)cc3[nH]2)cc1 |  | inactive: 4.18%
Cc1ccc(O)c(C(=O)c2cc(C#N)c(=O)n(-c3nccs3)c2)c1 | inconclusive: 17.7 µM [inhibitor, partial curve] | 
CCSc1nnc(NC(=O)c2cccnc2)s1 | inconclusive: 17.7 µM [inhibitor, single point] | 
Clc1ccc(CN2CCCCCC2)cc1Cl | inconclusive: 28.2 µM [inhibitor, partial curve] | 
Cc1cc(C(=O)CCl)c(C)n1CCc1ccccc1 | inconclusive: 22.3 µM [inhibitor, single point] | 
CCOC(=O)CSc1nnc(NC(=O)CN2CCN(C=O)CC2)s1 | inconclusive: 3.16 µM [inhibitor, full curve] | 
Cc1ccc(C)c2[nH]c(=O)c(CN(CCN3CCCC3)C(=O)Nc3cccc(Cl)c3)cc12 | inconclusive: 15.8 µM [inhibitor, single point] | 
Cc1snnc1C(=O)NC(=S)Nc1ccccc1 | active: 12.6 µM | 
COc1ccc(OCC(=O)Nc2ccc3c(c2)nc(CCN2CCCC2)n3C)cc1 | inconclusive: 5.01 µM [inhibitor, partial curve] | 
Cc1c(C(=O)N2CCCC2)oc2c1-c1nn(CC(=O)NCCCN3CCCCC3C)cc1CC2 (stereo unspecified) | inconclusive: 12.6 µM [inhibitor, partial curve] | 
O=C(N/C(=C/c1ccc(Cl)cc1)C(=O)N1CCCCC1)c1ccco1 |  | inactive: 8.42%
Cc1ccsc1CNCC(O)c1ccccc1 (stereo unspecified) | inconclusive: 17.8 µM [inhibitor, partial curve] | 
COc1cccc(CNC(=O)c2ccc(CS(=O)(=O)Cc3ccc(C)cc3)o2)c1 |  | inactive: 8.7%
CC1CCN(C(=S)NC(=O)c2cccs2)CC1 | inconclusive: 17.7 µM [inhibitor, partial curve] | 
CCOC(=O)c1cnc2ccc(C)cc2c1Sc1ccccc1C(=O)OC | inconclusive: 17.7 µM [inhibitor, single point] | 
Cc1nc2ccc(NC(=S)NC3CCCCC3)cc2nc1C | inconclusive: 15.8 µM [inhibitor, partial curve, poor fit] | 

SMILES | Potency | activity, negative = inhibition
CCOC(=O)c1c(C)[nH]c(C(=O)Nc2ccc(C)c(Cl)c2)c1C |  | inactive: 2.01%
CCOc1ccc(-c2nc(CN3CCCC(C(=O)N4CCOCC4)C3)c(C)o2)cc1 (stereo unspecified) |  | inactive: -6.96%
O=S(=O)(c1ccc(F)cc1)c1snnc1-c1ccccc1 | inconclusive: 15.8 µM [inhibitor, partial curve] | 
O=C(NNC(=O)C12CC3CC(CC(C3)C1)C2)c1ccccn1 | active: 17.7 µM | 
CCNc1ncc2nc(-c3cc(F)cc(F)c3)c(=O)n(C)c2n1 |  | inactive: 0.545%
O=C(NC1CCCC1)c1cc(COc2ccc3ncccc3c2)on1 |  | inactive: -8.22%
Cc1cc(C(C)(C)C)cc(C)c1C(=O)O |  | inactive: -1.25%
CC(C)N1CCN(S(=O)(=O)c2ccc3ccccc3c2)CC1 | inconclusive: 12.6 µM [inhibitor, partial curve] | 
CCN1C=C(Cc2ccccc2C)C2=C(C1)C(c1ccccc1C)C(C#N)=C(N)O2 (stereo unspecified) | inconclusive: 19.9 µM [inhibitor, partial curve] | 
O=C(CSc1ncc(S(=O)(=O)c2ccccc2)c(=O)[nH]1)Nc1ccccc1Cl | inconclusive: 15.8 µM [activator, partial curve] | 
CC/C(=C\C(=O)c1ccncc1)Nc1ccc(O)cc1 | inconclusive: 28.1 µM [inhibitor, single point] | 
CC(=O)c1sc(N/N=C\c2ccc(Br)cc2)nc1C |  | inactive: -3.51%
CCCOc1ccc(/C=N/n2nnnc2N)cc1OC |  | inactive: 2.09%
Cc1sccc1C1C(C#N)=C(N)SC(N)=C1C#N | inconclusive: 4.46 µM [inhibitor, full curve, poor fit] | 
O=S(=O)(NC(=S)NC1CCCCC1)c1ccccc1 | inconclusive: 5 µM [inhibitor, full curve, poor fit] | 
COc1cccc(OC)c1C(=O)NC(=S)N1C[C@H]2C[C@H](C1)c1cccc(=O)n1C2 | inconclusive: 11.2 µM [inhibitor, partial curve] | 
O=c1c2cc(N3CCOCC3)ccc2[nH]c(=S)n1CC1CCCO1 (stereo unspecified) | inconclusive: 15.8 µM [inhibitor, single point] | 
CCOC(=O)CSC1=C(C#N)C(c2ccccc2C)C2=C(CCCC2=O)N1 (stereo unspecified) | inconclusive: 17.7 µM [inhibitor, single point] | 
O=C(CSc1ccc(-c2nc3ccccc3[nH]2)cn1)N1CCN(C(=O)c2ccco2)CC1 |  | inactive: 2.82%
COc1ccc2nc(C)cc(Nc3ccc(N4CCOCC4)cc3)c2c1 |  | inactive: -8.95%
C=CCNc1nc(-c2sc(NC(=O)CC)nc2C)cs1 | inconclusive: 22.3 µM [inhibitor, partial curve] | 
COc1ccc(C2CC(=O)N3CN(Cc4ccco4)CSC3=C2C#N)cc1 (stereo unspecified) | inconclusive: 0.446 µM [inhibitor, full curve] | 
Cc1nc(Nc2ccccc2)sc1-c1ccccc1 |  | inactive: -16.5%
COc1cc(/C=C2\SC(=O)N(c3cccc(Cl)c3)C2=O)cc([N+](=O)[O-])c1O | inconclusive: 19.9 µM [inhibitor, partial curve] | 
Cn1c(=O)cc(SCC(=O)NCc2ccco2)c2ccccc21 |  | inactive: -8.3%
C=CCn1c(C(CCCC)CC(O)COCCC)n[nH]c1=S (stereo unspecified) | inconclusive: 5.61 µM [inhibitor, partial curve] | 

SMILES | Potency | activity, negative = inhibition
O=C(O)c1ccc(CSc2nc(-c3ccc(Cl)cc3)cc(C(F)(F)F)n2)cc1 | inconclusive: 15.8 µM [activator, partial curve] | 
O=C(CCC(=O)Nc1ccc(F)cc1)N/N=C/c1cccc(Br)c1 | inconclusive: 35.5 µM [inhibitor, partial curve] | 
CCc1ccc(C2C(C#N)=C(N)SC(N)=C2C#N)s1 | inconclusive: 1.12 µM [inhibitor, full curve] | 
O=C1C=CC[C@@H]2[C@H]3CCCN4CCC[C@@H](CN12)[C@@H]34 |  | inactive: -5.2%
CN1CCN(C(=S)Nc2ccc(S(N)(=O)=O)cc2)CC1 | inconclusive: 22.3 µM [inhibitor, single point] | 
COc1ccc(CNC2CC(C)N(C)CC2C)cc1OC (stereo unspecified) | inconclusive: 25.1 µM [inhibitor, single point] | 
CCN1CCN(c2nc3c(C)cccn3c(=O)c2/C=C(\C#N)C(=O)NC)CC1 |  | inactive: -1.46%
O=C(O)c1cnccn1 | inconclusive: 17.7 µM [inhibitor, partial curve] | 
CCOC(=O)NC1(NCC(C)C)Oc2ccccc2O1 | inconclusive: 19.9 µM [inhibitor, single point] | 
COc1ccccc1OCC#CCn1ccnc1 | inconclusive: 15.8 µM [inhibitor, partial curve] | 
COc1ccc(C(=O)NC(C)c2nnc(SCC(=O)NC3CCCC3)n2C)cc1 (stereo unspecified) |  | inactive: 9.17%
Oc1ccc(-c2csc(Nc3cccc4ccccc34)n2)cc1O | inconclusive: 20 µM [inhibitor, partial curve] | 
CCOC(=O)Cc1ccc2sc(-c3ccccc3)nc2c1 |  | inactive: 6.49%
CCOC(=O)c1ccc(-c2ccc(C3Nc4ccccc4C(=O)N3O)o2)cc1 (stereo unspecified) | inconclusive: 7.06 µM [inhibitor, full curve, poor fit] | 
COCCn1nnnc1C(c1ccc(OC)c(OC)c1)N1CCN(c2nc3ccccc3s2)CC1 (stereo unspecified) |  | inactive: -14.3%
CCc1ccc(OCc2ccccc2C(=O)Nc2ccc3nc(C)cc(N)c3c2)cc1 |  | inactive: 0.936%
COc1ccc(CCn2c(NN)nc3c2c(=O)[nH]c(=O)n3C)cc1 | active: 5 µM | 
CCN(CC)c1ccc2c(Cl)cc(=O)oc2c1 |  | inactive: 6.28%
Nc1nc(SCc2ccccc2)n[nH]1 |  | inactive: 1.55%
COc1cc(C(=O)N2CCN(C3CCC(C)CC3)CC2)cc(OC)c1OC (stereo unspecified) | inconclusive: 15.8 µM [inhibitor, partial curve] | 
CCN(CC)c1cc(Cl)c2nonc2c1N | inconclusive: 9.98 µM [inhibitor, partial curve] | 
CC1(COc2ccc(CC3SC(=O)NC3=O)cc2)CCCCC1 (stereo unspecified) |  | inactive: 6.53%
O=C(Nc1cccc(-c2nn[nH]n2)c1)c1ccc(Cl)s1 | inconclusive: 35.5 µM [inhibitor, single point] | 
CCCC(C)C(=O)Nc1ncc(S(=O)(=O)c2ccc([N+](=O)[O-])cc2)s1 (stereo unspecified) |  | inactive: -0.651%
